T1: UNK ZnF1-3 (human, UniProt Q9C0B0 31-174)
T1 sequence: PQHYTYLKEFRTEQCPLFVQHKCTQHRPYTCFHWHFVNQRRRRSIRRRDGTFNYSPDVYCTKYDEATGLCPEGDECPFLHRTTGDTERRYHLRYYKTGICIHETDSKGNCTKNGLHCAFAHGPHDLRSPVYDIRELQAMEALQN

B1: chr8:79514634:79514635:+_ENSG00000171033_ENST00000352966|hu_mus|FALSE|FALSE (ssRNA)
RNA: GGGAGUUCUACAGUCCGACGAUCGUUGUGUUUUACAAAAGAAGGUUCUGCCCUGUUCACGCCACAACACUAUGGGAAAUUAAAAAGGCAGCCCUUUAAAAAAUGAGCGGUAUAAAAAUUCACAGUCAUGUACAUCAUUUUGUUCAACAGAGGAUUGAGCAUCA
B2: chr16:94690093:94690094:+_ENSMUSG00000040785_ENSMUST00000117648|mus_hu|mus_mus_mus_hu_True|8_58 (ssRNA)
RNA: GGGAGUUCUACAGUCCGACGAUCGGGCUGGGAUGACGGACACACAGCCUCGAUUCCAGGGGGAAAAAGUCUUAGUCAAUACUAAUUAAAAAGUGUUAAUGAUUUUUGAAAAUCAGAUUACAUCUAUUUGAAUCAUAAAGCAAACAACAGAGGAUUGAGCAUCA
B3: chr1:93819538:93819539:+_ENSG00000117505_ENST00000370267|hu_mus|FALSE|FALSE (ssRNA)
RNA: GGGAGUUCUACAGUCCGACGAUCCUCUUCAGGAAUGCCGAGGUUUUCCAAACGAGAACUGGCCUUUCUUCUUUUUAAUGCUACUGUCUUGCAUUCUUGUAAGACUUCUUUUACUUCACUGAUGUAAGAGCCAAAGCCCAAACUCAACAGAGGAUUGAGCAUCA
B4: 216272015_216273021_2753_CDS_ENSG00000115414_ENST00000323926|human|control|control (ssRNA)
RNA: GGGAGUUCUACAGUCCGACGAUCUACUGAUGGCGAAUAGACUAUUCUGUACCCUGUGAUGGGAGCCUGGGGUCUGCUCCAGCGAACAACAAUUGAGGUGUCAUCAACUUGGUCCACAGUCGUGUCAGGAGGGGCAUCAGGCGCCAACAGAGGAUUGAGCAUCA
B5: chr17:60770872:60770873:+_ENSG00000011028_ENST00000303375|hu_hu|hu_hu_hu_mus_True|1_48 (ssRNA)
RNA: GGGAGUUCUACAGUCCGACGAUCUCUUUAAAAAAAAAAAAAAAAAGACAAACAAUAAUAGCACAUUUCGAGAAUCAAGAACUACAAAGAAAGGGCCGCUUUGAGUUUUUGUUCACAUCGUCCUGCACUGGGACACGACCAGGACAACAGAGGAUUGAGCAUCA
B6: chr9:135205225:135205226:-_ENSG00000107290_ENST00000224140|hu_mus|motif|central (ssRNA)
RNA: GGGAGUUCUACAGUCCGACGAUCUGUAGAAGUUGAAUCCCCAAAAGUGCUAUAUUGGGGCAUUUUGAAUUUUAUGUUUCGGAUUAUUUGUUUCAAACACAUUUGUAACUCAUGGGUUUCUUGACCAGUCAAUUGCCAACCCAGCAACAGAGGAUUGAGCAUCA

The list shows a part of the results.

This assay has as its target T1, UNK ZnF1-3. Description: nsRBNS (natural sequence RNA bind-n-seq); RBNS binding buffer (assumed for nsRBNS): 25 mM Tris pH 7.5, 150 mM KCl, 3 mM MgCl2, 0.01% Triton X-100, 500 ug/ml BSA, 20 U/ml SUPERase-In, 4 C; UNK is unkempt and MSI1 is Musashi-1; names of the RNAs are library labels; protein concentration not given here; high values mean tight binding.
In turn, B1 returned a binding signal of 0.706 enrichment R.
The same measure for B2: 0.555 enrichment R; for B3: 0.507 enrichment R; for B4: 1.62 enrichment R.
The same measure for B5: 2.83 enrichment R; for B6: 0.772 enrichment R.

The values above are taken from paper PMC12136788.
